Measured values as given in patent US20250042995A1 (AKESO BIOPHARMA, published 2025).

Tests used:
[1] = target: T1, human LAG3 (full length) expressed on cells (human, UniProt P18627 23-525); test: flow cytometry on 293T-LAG3 cells
T1 construct: whole, on cells; also called huLAG3FL
T1 sequence (looked up): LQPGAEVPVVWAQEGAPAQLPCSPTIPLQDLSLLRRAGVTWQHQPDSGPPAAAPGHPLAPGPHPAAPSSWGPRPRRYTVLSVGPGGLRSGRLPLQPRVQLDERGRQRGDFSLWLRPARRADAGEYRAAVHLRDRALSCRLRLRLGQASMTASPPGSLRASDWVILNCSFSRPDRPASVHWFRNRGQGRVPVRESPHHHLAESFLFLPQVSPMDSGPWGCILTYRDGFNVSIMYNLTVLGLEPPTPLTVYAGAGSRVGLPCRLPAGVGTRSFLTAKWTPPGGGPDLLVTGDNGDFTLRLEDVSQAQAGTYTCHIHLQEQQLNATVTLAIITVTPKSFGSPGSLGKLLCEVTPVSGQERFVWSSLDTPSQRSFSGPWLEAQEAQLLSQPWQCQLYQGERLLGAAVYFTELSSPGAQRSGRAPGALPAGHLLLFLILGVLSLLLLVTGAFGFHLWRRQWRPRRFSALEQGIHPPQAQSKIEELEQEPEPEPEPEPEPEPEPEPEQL
Experimental: After centrifugation and washing several times with 1% PBSA, 100 μL of FITC goat anti-human IgG (purchased from Jackson, Cat. No. 109-095-098) (diluted at a 1:500 ratio) was added into each tube, and the mixture was incubated on ice in the dark for 40 min. After washing once with 1% PBSA, 200 μL of 1% PBSA was added to resuspend the cells. Fluorescence signals were detected with FITC channel on a flow cytometer.

human LAG3-mFc [2] = target: T2, human LAG3-mFc (human, UniProt P18627 23-450); test: competitive flow cytometry: antibody titrated against 3 nM LAG3-mFc binding to MHC II on Raji cells
T2 construct: also called antigen human LAG3-mFc; not shown: mFc: Fc protein fragment of mouse IgG
T2 sequence (looked up): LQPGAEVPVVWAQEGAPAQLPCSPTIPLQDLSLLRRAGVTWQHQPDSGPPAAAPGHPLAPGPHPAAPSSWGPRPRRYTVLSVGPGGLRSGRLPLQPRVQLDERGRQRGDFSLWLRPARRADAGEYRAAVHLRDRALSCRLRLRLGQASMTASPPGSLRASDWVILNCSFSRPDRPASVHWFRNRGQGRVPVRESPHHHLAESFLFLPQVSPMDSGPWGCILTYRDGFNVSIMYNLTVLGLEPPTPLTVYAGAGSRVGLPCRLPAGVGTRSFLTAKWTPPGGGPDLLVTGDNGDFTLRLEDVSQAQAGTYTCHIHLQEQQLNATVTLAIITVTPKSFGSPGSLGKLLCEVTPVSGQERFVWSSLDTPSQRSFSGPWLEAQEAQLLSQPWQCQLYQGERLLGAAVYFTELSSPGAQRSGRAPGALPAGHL
Experimental: Raji cells (medium: 1640+10% FBS) (Cell Resource Center, Shanghai Institutes for Biological Sciences, Chinese Academy of Sciences, Cat. No. TCHu 44) were added into EP tubes at 300,000 cells per sample. 1000 μL of 1% PBSA (PBS containing 1% BSA) was added. The mixture was centrifuged at 600×g for 5 min, and the supernatant was discarded. […] The mixture was mixed well and pre-incubated on ice for 30 min. 100 μL of the pre-incubated mixture of antibody and protein was added to the sample. The mixture was mixed well and incubated on ice in the dark for 1 h; 200 μL of 1% PBSA was added, and the mixture was centrifuged at 600×g for 5 min, followed by removal of the supernatant, and then washed twice; 100 μL of an APC anti mouse antibody (purchased from Biolegend, Cat. No. 405308) (diluted at a 1:400 ratio) was added, and the mixture was mixed well and incubated on ice in the dark for 40 min; 200 μL of 1% PBSA was added, and the mixture was centrifuged at 600×g for 5 min, followed by removal of the supernatant; 200 μL of Washing Buffer was added into each tube to resuspend the cells, and then the suspension was transferred to a sample loading tube for testing on a flow cytometer.

human LAG3-mFc [3] = target: T2, human LAG3-mFc; test: ELISA, human LAG3-mFc coated 2 ug/mL
Experimental: Then the ELISA plate coated with the antigen was washed once with PBST and then blocked with a PBS solution containing 1% BSA as a blocking solution at 37° C. for 2 h. After blocking, the ELISA plate was washed 3 times with PBST. The ELISA plate containing the test antibodies was incubated at 37° C. for 30 min and then washed 3 times with PBST. After washing, a working solution of an HRP-labeled goat anti-human IgG (H+L) (Jackson, Cat. No. 109-035-088) secondary antibody diluted at a ratio of 1:5000 was added, and then the plate was incubated at 37° C. for 30 min. After incubation, the plate was washed 4 times with PBST, TMB (Neogen, 308177) was added for chromogenesis in the dark for 5 min, and then a stop solution was added to terminate the chromogenic reaction. The ELISA plate was put into an ELISA plate reader immediately, and the OD value of each well in the ELISA plate was read at 450 nm. The data were analyzed and processed by SoftMax Pro 6.2.1.

B1: H7L8(hG4WT) (antibody, human IgG4 S228P, kappa)
heavy: QVQLQQWGAGLLKPSETLSLTCAVYGGSISDYYWNWIRQPPGKGLEWIGEINHRGTTNSNPSLKSRVTLSLDTSKNQFSLKLRSVTAADTAVYYCAFGYSDYEYDWFDPWGQGTLVTVSSASTKGPSVFPLAPCSRSTSESTAALGCLVKDYFPEPVTVSWNSGALTSGVHTFPAVLQSSGLYSLSSVVTVPSSSLGTKTYTCNVDHKPSNTKVDKRV[skipping human IgG4 Fc with S228P (EU numbers)]
light: EIVLTQSPATLSLSPGERATLSCRASQTISSYLAWYQQKPGQAPRLLIYDASNRATGIPARFSGSGSGTDFTLTISSLEPEDFAVYYCQQRSNWPITFGQGTNLEIKRTVAAPSVFIFPPSDEQLKSGTASVVCLLNNFYPREAKVQWKVDNALQSGNSQESVTEQDSKDSTYSLSSTLTLSKADYEKHKVYACEVTHQGLSSPVTKSFNRGEC
notes: Humanized anti-LAG3 IgG4 (Ig gamma-4 chain C region) with human kappa constant region
EC50 [1]: 4.93 nM
EC50 (human LAG3-mFc [2]): 1.34 nM
EC50 (human LAG3-mFc [3]): 0.131 nM
